Data published in the supplement of paper PMC10369915.
The list shows a part of the results. No stated cut-off is given here; in the data, active = 3.2 or more and inactive = the rest. Most of these values are background signal.

Molecular target: SHP2 C-SH2 domain E139D
Assay: enrichment score (SH2-bound / input frequency) (ratio); bacterial display of known human phosphotyrosine sites (pTyr-Var adds point mutants) read by sequencing; higher = stronger binding; tyrosines were phosphorylated by kinases first
Settings: peptide library: pTyr-Var
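Further: displayed peptides selected on beads carrying the immobilized SH2 domain, with library peptides lacking any tyrosine serving as negative controls.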

Enrichment score, inactive:
HNGDRYFKGIV [DCX_Y64_R59H] 0.777, FKGIVYAVSSD [DCX_Y70] 0.958, RTVPLYESPRK [DDB1_Y718] 0.678, LSNPAYRLLLA [DDR1_Y513] 0.745, PLRPDYQEPSR [DDR2_Y481] 0.849, LYSGDYYRIQG [DDR2_Y740] 0.833, LFSGDYFRIQG [DDR2_Y740_YF] 1.5, FSGDCYRIQGR [DDR2_Y741_Y740C_YF] 0.829, QGRQTYLPQPA [DDR2_Y813] 0.708, RPCVVYGGADI [DDX3X_Y301] 0.916, SDIEEYVHRIG [DDX3X_Y525] 0.766, TQNAVYSAANY [DDX5_Y535_G533A] 0.681, TQNGVYSAANF [DDX5_Y535_YF] 0.693, KLASTYREAAT [DEAF1_Y483_H479L] 0.648, KRTFEYEAEKN [DENND2B_Y396_D399E] 0.364, DRFANYIEKVR [DES_Y122] 1.01, DRFDNYIEKVR [DES_Y122_A120D] 0.812, QEMMEYRRQIQ [DES_Y324_H326R] 1.03, SEASGYQDNIA [DES_Y363] 0.436

Molecular target: SHP2 C-SH2 domain wild-type
Assay: as above
Settings: peptide library: pTyr-Var

Enrichment score, inactive:
HNGDRYFKGIV [DCX_Y64_R59H] 0.624, FKGIVYAVSSD [DCX_Y70] 0.814, RTVPLYESPRK [DDB1_Y718] 0.852, LSNPAYRLLLA [DDR1_Y513] 0.643, PLRPDYQEPSR [DDR2_Y481] 0.995, LYSGDYYRIQG [DDR2_Y740] 0.827, LFSGDYFRIQG [DDR2_Y740_YF] 1.24, FSGDCYRIQGR [DDR2_Y741_Y740C_YF] 0.834, QGRQTYLPQPA [DDR2_Y813] 0.673, RPCVVYGGADI [DDX3X_Y301] 0.776, SDIEEYVHRIG [DDX3X_Y525] 0.768, TQNAVYSAANY [DDX5_Y535_G533A] 0.714, TQNGVYSAANF [DDX5_Y535_YF] 0.801, KLASTYREAAT [DEAF1_Y483_H479L] 0.61, KRTFEYEAEKN [DENND2B_Y396_D399E] 0.381, DRFANYIEKVR [DES_Y122] 1.02, DRFDNYIEKVR [DES_Y122_A120D] 0.827, QEMMEYRRQIQ [DES_Y324_H326R] 0.752, SEASGYQDNIA [DES_Y363] 0.542

Molecular target: SHP2 N-SH2 domain L43F
Assay: as above
Settings: peptide library: pTyr-Var

Enrichment score, inactive:
HNGDRYFKGIV [DCX_Y64_R59H] 0.694, FKGIVYAVSSD [DCX_Y70] 1, RTVPLYESPRK [DDB1_Y718] 0.685, LSNPAYRLLLA [DDR1_Y513] 0.894, PLRPDYQEPSR [DDR2_Y481] 0.816, LYSGDYYRIQG [DDR2_Y740] 0.903, LFSGDYFRIQG [DDR2_Y740_YF] 1.38, FSGDCYRIQGR [DDR2_Y741_Y740C_YF] 0.865, QGRQTYLPQPA [DDR2_Y813] 0.755, TQNAVYSAANY [DDX5_Y535_G533A] 0.695, TQNGVYSAANF [DDX5_Y535_YF] 0.728, KLASTYREAAT [DEAF1_Y483_H479L] 0.717, KRTFEYEAEKN [DENND2B_Y396_D399E] 0.41, DRFANYIEKVR [DES_Y122] 0.883, DRFDNYIEKVR [DES_Y122_A120D] 0.918, QEMMEYRRQIQ [DES_Y324_H326R] 0.66, SEASGYQDNIA [DES_Y363] 0.52

Molecular target: SHP2 N-SH2 domain T42A
Assay: as above
Settings: peptide library: pTyr-Var

Enrichment score, inactive:
HNGDRYFKGIV [DCX_Y64_R59H] 0.602, FKGIVYAVSSD [DCX_Y70] 0.717, RTVPLYESPRK [DDB1_Y718] 0.56, LSNPAYRLLLA [DDR1_Y513] 0.7, PLRPDYQEPSR [DDR2_Y481] 0.701, LYSGDYYRIQG [DDR2_Y740] 0.641, LFSGDYFRIQG [DDR2_Y740_YF] 1.1, FSGDCYRIQGR [DDR2_Y741_Y740C_YF] 0.667, QGRQTYLPQPA [DDR2_Y813] 0.608, RPCVVYGGADI [DDX3X_Y301] 0.722, SDIEEYVHRIG [DDX3X_Y525] 0.649, TQNAVYSAANY [DDX5_Y535_G533A] 0.599, TQNGVYSAANF [DDX5_Y535_YF] 0.695, KLASTYREAAT [DEAF1_Y483_H479L] 0.376, KRTFEYEAEKN [DENND2B_Y396_D399E] 0.496, DRFANYIEKVR [DES_Y122] 1.08, DRFDNYIEKVR [DES_Y122_A120D] 0.815, QEMMEYRRQIQ [DES_Y324_H326R] 0.724, SEASGYQDNIA [DES_Y363] 0.401

Molecular target: SHP2 N-SH2 domain T52S
Assay: as above
Settings: peptide library: pTyr-Var

Enrichment score, inactive:
HNGDRYFKGIV [DCX_Y64_R59H] 0.659, FKGIVYAVSSD [DCX_Y70] 0.852, RTVPLYESPRK [DDB1_Y718] 0.79, LSNPAYRLLLA [DDR1_Y513] 0.961, PLRPDYQEPSR [DDR2_Y481] 1.02, LYSGDYYRIQG [DDR2_Y740] 0.871, LFSGDYFRIQG [DDR2_Y740_YF] 1.08, FSGDCYRIQGR [DDR2_Y741_Y740C_YF] 0.593, QGRQTYLPQPA [DDR2_Y813] 0.801, RPCVVYGGADI [DDX3X_Y301] 0.606, SDIEEYVHRIG [DDX3X_Y525] 0.697, TQNAVYSAANY [DDX5_Y535_G533A] 0.513, TQNGVYSAANF [DDX5_Y535_YF] 0.74, KLASTYREAAT [DEAF1_Y483_H479L] 0.665, KRTFEYEAEKN [DENND2B_Y396_D399E] 0.472, DRFANYIEKVR [DES_Y122] 0.944, DRFDNYIEKVR [DES_Y122_A120D] 0.87, QEMMEYRRQIQ [DES_Y324_H326R] 0.765, SEASGYQDNIA [DES_Y363] 0.591

Molecular target: SHP2 N-SH2 domain wild-type
Assay: as above
Settings: peptide library: pTyr-Var

Enrichment score, inactive:
HNGDRYFKGIV [DCX_Y64_R59H] 0.887, FKGIVYAVSSD [DCX_Y70] 0.948, RTVPLYESPRK [DDB1_Y718] 0.844, LSNPAYRLLLA [DDR1_Y513] 0.774, PLRPDYQEPSR [DDR2_Y481] 1.2, LYSGDYYRIQG [DDR2_Y740] 0.997, LFSGDYFRIQG [DDR2_Y740_YF] 1.27, FSGDCYRIQGR [DDR2_Y741_Y740C_YF] 1.12, QGRQTYLPQPA [DDR2_Y813] 1, RPCVVYGGADI [DDX3X_Y301] 0.867, SDIEEYVHRIG [DDX3X_Y525] 0.786, TQNAVYSAANY [DDX5_Y535_G533A] 0.682, TQNGVYSAANF [DDX5_Y535_YF] 0.817, KLASTYREAAT [DEAF1_Y483_H479L] 0.635, KRTFEYEAEKN [DENND2B_Y396_D399E] 0.513, DRFANYIEKVR [DES_Y122] 0.918, DRFDNYIEKVR [DES_Y122_A120D] 0.974, QEMMEYRRQIQ [DES_Y324_H326R] 0.909, SEASGYQDNIA [DES_Y363] 0.65
